± gives the standard deviation of the averaged measurements. The list shows a part of the results.

The test concerns PfAP2-EXP AP2 domain (GST-tagged). The test is described as follows: gcPBM binding intensity (ln(normalized median fluorescence intensity)); higher = stronger DNA binding. The procedure, abridged:
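In this array assay, P. falciparum DNA-binding domains with a GST tag, expressed in E. coli, were applied for 1 h to primer-extended double-stranded 36-bp intergenic genomic probes and negative controls on an Agilent 4 × 180k array. Bound protein was visualised with Alexa488 anti-GST antibody at 488 nm. Binding intensity is the highest Masliner-normalised natural-log median intensity across replicate spots of either probe orientation.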
For TAATATAAATGAAAGGTGCTTTTGCTTTCTTTTTTT, the “gcPBM binding intensity (ln)” value worked out at 8.29 ± 0.15. For “AAAAAAAAAAAAAATACACACACACCGATATATATA [CACACA_site8142]”, the “gcPBM binding intensity (ln)” value turned out to be 8.65 ± 0.51. In the case of “ATACATATAATAATATGTACATATAATTATATATAT [XGTACX_site913]”, the “gcPBM binding intensity (ln)” value is 8.51 ± 0.22. In the case of TAATATATTTTTAACATGCACTGTATTTTAATATAT, the “gcPBM binding intensity (ln)” value was 9.36 ± 0.29.

“TATAAAACAAATATATGTACATATCATAGTATAATA [XGTACX_site2965]”: the “gcPBM binding intensity (ln)” value was determined as 8.53 ± 0.34. Regarding “TAATTAAAGTTATCTACACACCTTTATAGATATATA [CACACA_site7778]”, the “gcPBM binding intensity (ln)” value was determined as 8.29 ± 0.4.

In the case of “TCTGGATTGGATTACAAGAAAATAAAATATAAAATA [CACACA_negctrl_site122]”, the “gcPBM binding intensity (ln)” value came to 8.38 ± 0.4. In the case of “TATACAAATATATATGCACACACATATATGTATATG [CACACA_site9007]” it was 8.475 ± 0.035. As to “TATATATATATATATTGTACAAAGATTAATATATAA [XGTACX_site8433]”, the “gcPBM binding intensity (ln)” value is 10 ± 0.2.

“TATTTTAATAAGAATAAATGAAATGAAATGAAATAT [CACACA_negctrl_site823]”: the “gcPBM binding intensity (ln)” value was 8.66 ± 0.41. As for “ACTTAATTTTTTTATTGTACATGTAAATGAGGGAAA [XGTACX_site6305]”, the “gcPBM binding intensity (ln)” value was determined as 8.79 ± 0.45. In the case of “ACATCCTATAAATAGAGTACGTAAATTATAATACAC [XGTACX_site5338]” it was 8.71 ± 0.2; in that of “ATGAATTTTTCTCTACAAAAGGATATAATAAAAATA [XGTACX_negctrl_site461]”, 8.31 ± 0.23; in that of “TTTTCTAATTAATATTGTACATAAATGTATATATAT [XGTACX_site4749]”, 8.37 ± 0.15. As to “TAGTGTGCCAAATTAGCACACACATATATACATGAA [CACACA_site8910]”, the “gcPBM binding intensity (ln)” value is 8.56 ± 0.37.

For the sequence “ATCAAAGATAAATTTACACACATATAAATATAAATA [CACACA_site7409]”, the “gcPBM binding intensity (ln)” value was 8.44 ± 0.56.

As to “CTTCTGGACAGGAATGCACACATTTTTTTTTCTTTT [CACACA_site1807]”, the “gcPBM binding intensity (ln)” value was 8.64 ± 0.4. On to “GTTTTTATCATATCATGTACGTATTTTATTTTTTTT [XGTACX_site8643]”, for which the “gcPBM binding intensity (ln)” value was found to be 9.03 ± 0.32. As for “TAAAATAAAAAGTTTACACACATATATAACTTTAAT [CACACA_site6456]”, the “gcPBM binding intensity (ln)” value was 8.26 ± 0.4. For the sequence “CCCCTATAAATAGGGTGTACTAATAAATATTTTTAA [XGTACX_site1244]”, the “gcPBM binding intensity (ln)” value stood at 9.13 ± 0.35.

For the sequence “ACGGGCGACACATAAGTGCGCAAAAAAAAAAAAATA [GTGCAC_site9688]”, the “gcPBM binding intensity (ln)” value was 8.78 ± 0.49. In the case of “GAAAAGTATAAAAAACGTACAAGTTTTATTTTCACA [XGTACX_site4604]”, the “gcPBM binding intensity (ln)” value came to 8.34 ± 0.35. With “TTTTATAAAACATGTAGTACATGAAAAAAAAAATTT [XGTACX_site1626]”, the “gcPBM binding intensity (ln)” value worked out at 8.73 ± 0.47. In the case of “AAAATACAGAAACACACACACACACCCATATATATA [CACACA_site3559]” it was 8.74 ± 0.44; in that of GTATTCATTCCTTGAGTGCAATTGCAATAAATAAAA, 8.93 ± 0.028.

For “CATATTAAGATGTGTACACATTTTTATTTTTTTTTT [CACACA_site4425]”, the “gcPBM binding intensity (ln)” value is 8.43 ± 0.32. Turning to “TAAAACAAAATGGTAACACACACATATATATATATA [CACACA_site8590]”, the “gcPBM binding intensity (ln)” value was 10.1 ± 0.3. “ATAGCATTTCACAAATGTACATAAAAAAATAAAAAT [XGTACX_site402]”: the “gcPBM binding intensity (ln)” value was 8.98 ± 0.43. On to “AAATGACGAAATAAAATCATAAATTAAAATAAATAA [CACACA_negctrl_site655]”, for which the “gcPBM binding intensity (ln)” value stood at 8.46 ± 0.11. In the case of “TCCTATCATTTATATTTTACTACATAATATTGATAA [GTGCAC_negctrl_site286]” it was 8.51 ± 0.35; in that of “AAATGGAAATTAATATGTACATATTTATAAGTATGA [XGTACX_site1774]”, 8.71 ± 0.35; in that of “AATATATAAATATATATAAATAAATATATATATAAA [CACACA_negctrl_site49]”, 7.93 ± 0.22. Regarding “TCTTTTCTTTTGTGTGTGCACATATAAGCATGAAAC [GTGCAC_site9910]”, the “gcPBM binding intensity (ln)” value turned out to be 9.02 ± 0.13. As for “ATGTTTCTATAGATTTGTACATATTTCATATGAATA [XGTACX_site1053]”, the “gcPBM binding intensity (ln)” value turned out to be 8.89 ± 0.45. In the case of “TTATTTTTTGTATGAACACACAACTTAATTATGATG [CACACA_site2448]” it was 8.62 ± 0.26; in that of “TTTTTTAATTAATTACCTTTGAATGTGTATTAGGAC [GTGCAC_negctrl_site651]”, 8.49 ± 0.26. For the sequence “TTTTACAAATATTTCTGTACACATTCTCATATAATT [XGTACX_site1974]”, the “gcPBM binding intensity (ln)” value was found to be 8.88 ± 0.38. Take “TAGCCCACATTTAATGGTACAGTGAGTATATATATG [XGTACX_site8044]”: the “gcPBM binding intensity (ln)” value is 8.64 ± 0.38. As to “ATGGAAATAAAAAAAAAAAAAAAAAAAAATATATAT [GTGCAC_negctrl_site67]”, the “gcPBM binding intensity (ln)” value was 8.36 ± 0.33. In the case of “TAATATATTTATAGAGCATGCAACGTAATATTATTA [TGCATGCA_site863]” it was 9.86 ± 0.6. Regarding “TACATAAAATACCATGCATGCTAGTAAAAAAAAAAA [TGCATGCA_site650]”, the “gcPBM binding intensity (ln)” value worked out at 8.91 ± 0.37.

On to “AAAATGCATTTGATGTGTACGCATTATAAAGAACAA [XGTACX_site4203]”, for which the “gcPBM binding intensity (ln)” value is 9.12 ± 0.36.

Consider “CACAAACAAAGACACACACACACACGCACAAAAATG [CACACA_site7193]”, for which the “gcPBM binding intensity (ln)” value was found to be 8.65 ± 0.48.

For the sequence “CAAATAGCTAGCTGTGCACACAAACATATTTTCCAA [CACACA_site879]”, the “gcPBM binding intensity (ln)” value stood at 8.7 ± 0.37.

These data come from the supplement of paper PMC11417369.
